# In the supplement of paper PMC12217912:
# The list shows a part of the results. Sequences were assembled here from the parent chain. Inactive controls read about 0.05.
# B1: TEV protease; numbered along this chain (parent)
# chain: MGESLFKGPRDYNPISSSICHLTNESDGHTTSLYGIGFGPFIITNKHLFRRNNGTLVVQSLHGVFKVKDTTTLQQHLVDGRDMIIIRMPKDFPPFPQKLKFREPQREERICLVTTNFQTKSMSSMVSDTSCTFPSGDGIFWKHWIQTKDGQCGSPLVSTRDGFIVGIHSASNFTNTNNYFTSVPKNFMELLTNQEAQQWVSGWRLNADSVLWGGHKVFMVKPEEPFQPVKEATQL
# Variants of: B1
# Assay: raw area under fraction-flipped curve 0-4 h after induction (AUC4h, not background-subtracted), DNA-recorder readout of cleavage of the substrate (dimensionless); higher = more cleavage of the substrate by the protease variant
# Settings: temperature: 34 °C; time window: 0-4 h after rhamnose induction
# Description: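 In vivo DNA recorder in E. coli TOP10(DE3) ΔrhaA at 34 °C. Each TEVp single-site mutant (parent TEVp 0) is paired with a single-site variant of the 7-mer TEVs (canonical ENLYFQ|S). The substrate sits between flexible linkers in a Bxb1-sfGFP-TEVs-SsrA fusion, so cleavage stabilises Bxb1 and speeds flipping of a recombination array, read by NGS. The value is the raw area under the fraction-flipped curve over 0-4 h after rhamnose induction (AUC4h), with ≥20 reads per time point. It is not background-subtracted; inactive controls average about 0.047.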
# 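Note: Bxb1 expression induced with 0.2% (w/v) L-rhamnose at OD600 near 0.5, cultures sampled hourly, flipped fraction per protease–substrate barcode pair counted by paired-end Illumina sequencing.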
Variant,area with substrate ENLAFQS,area with substrate ENLDFQS,area with substrate ENLEFQS,area with substrate ENLFFQS,area with substrate ENLGFQS,area with substrate ENLKFQS,area with substrate ENLQFQS,area with substrate ENLRFQS,area with substrate ENLSFQS,area with substrate ENLVFQS
K66E,0.0498,0.0638,0.0627,0.113,0.0438,0.0883,0.0633,0.0849,0.0439,0.0713
G153C,0.0525,0.0448,,,,,0.046,0.0503,,
Q74I,0.0482,0.0644,,0.0642,,,,,,0.075
Q74P,0.0657,,0.0656,,,0.131,,,,
S60W,0.0525,0.0642,0.0692,0.0725,0.0634,0.0864,,0.07,,
F6A,0.0452,,,0.0668,,0.082,,,,
L99I,0.0806,0.0647,,,,0.0834,,,0.0569,
D137T,0.0721,0.0832,,0.0908,,,,0.065,0.0672,
D137Q,0.0648,0.0552,0.0963,0.0911,,,0.0826,0.0613,,
F65P,0.0236,,0.0423,0.0395,,0.0512,,0.0133,,
K7Y,0.0761,,,0.0925,0.0549,0.0739,0.0683,,0.0662,
G138M,0.0734,,,0.0716,,0.0461,,,0.0663,0.0818
G2Y,0.0822,,0.0781,0.105,,0.103,,,,
K98R,0.0787,0.0677,,0.0948,,0.0796,,0.0924,0.0598,
S154D,0.064,,,0.0383,0.0485,0.0743,,,,
M83R,0.0508,0.0535,0.0451,,0.0493,0.0735,,,,
H76G,0.0893,,,,,0.0512,,0.0695,0.0636,
T114N,0.0718,,0.0682,0.0916,,,0.0751,,0.0594,
T70F,0.0525,,,0.0773,,0.0685,,0.0766,,
L190T,0.0863,0.0635,0.0542,,0.0634,0.0825,0.0864,0.0832,0.0648,

Variant,area with substrate ENLAFQS,area with substrate ENLDFQS,area with substrate ENLEFQS,area with substrate ENLFFQS,area with substrate ENLGFQS,area with substrate ENLKFQS,area with substrate ENLQFQS,area with substrate ENLRFQS,area with substrate ENLSFQS,area with substrate ENLVFQS
R50N,0.0612,0.0628,,0.0618,,,,,,
E25S,0.0747,0.0566,0.0605,0.0975,0.0664,0.0677,0.0517,0.0901,0.0709,
F187G,0.0679,,0.0642,,0.0595,0.0621,0.0714,0.0623,0.0626,
F187A,0.0658,0.0571,0.0551,0.0767,0.0679,0.0554,,0.0693,0.0689,
Q59N,0.0636,0.0732,0.0625,0.0705,,0.0606,,,,0.092
Q59H,0.0645,0.0563,0.0773,0.0897,,0.0775,0.0706,,0.0654,
K100D,0.0506,0.057,0.0361,,0.0757,0.0644,0.0611,0.0667,,0.0752
F101I,0.0581,,0.0546,,0.0752,0.0613,,,,
F101H,0.0344,0.0427,,,,,0.0461,,,0.0349
M188R,0.0706,0.0525,0.061,0.072,,0.0756,,,,
R81V,0.0667,0.0516,,,,0.0422,0.0883,0.073,0.0798,0.0787
P89V,0.0492,,,0.0534,,0.0509,,,0.0193,
R109K,0.0326,0.0748,,0.0704,,,,,0.0656,
F92N,0.0738,0.0658,,,,,0.0675,,0.0682,
Q97E,0.0471,0.0626,0.0839,0.0711,,,,,,0.118
Q97W,0.0553,0.0793,,0.0971,,0.0611,,,,0.12
G213T,0.0472,,0.0618,0.0631,0.0681,,,0.0615,,
V78D,0.0658,0.047,0.058,0.0532,,,0.0403,0.0065,0.0562,0.0364
V78N,0.0592,0.0602,,0.0626,,0.0625,,0.0471,0.0673,

# Same assay, conditions: temperature: 34 °C; time window: 0-4 h after rhamnose induction
Variant,area with substrate ENLMFQS,area with substrate ENLNFQS,area with substrate ENLPFQS,area with substrate ENLCFQS,area with substrate ENLHFQS,area with substrate ENLIFQS,area with substrate ENLLFQS,area with substrate ENLWFQS,area with substrate ENLTFQS
G153C,0.0644,0.0437,0.0311,,,,,,
Q74I,0.0482,,,0.0605,0.0068,,,,
Q74P,,,,,0.0635,0.0719,,,
S60W,,0.0388,0.0662,,0.0907,,0.0733,,
F6A,,,,0.0698,0.0799,0.082,,,
L99I,,,0.0522,,0.064,,,,
D137Q,,0.072,0.0567,0.07,0.0827,,0.0851,0.0649,
F65P,,0.0668,,0.0603,,,,,
K7Y,0.104,0.0401,0.0684,,0.0405,,,,
G138M,,,,0.0601,,0.0751,,,
G2Y,,0.0735,,,,,0.113,,
K98R,,0.0684,0.0412,,,0.103,,0.0597,
M83R,,,0.0542,0.0555,,,0.0116,0.0485,0.054
H76G,,0.0494,,,,,,,
T114N,0.0756,0.0679,0.0985,,,,,0.0585,
T70F,0.0887,,,,,,,,
L190T,,0.0654,0.0661,,0.0717,0.0931,,0.0837,
R50N,,,,,0.0676,,,,

Variant,area with substrate ENLMFQS,area with substrate ENLNFQS,area with substrate ENLPFQS,area with substrate ENLCFQS,area with substrate ENLHFQS,area with substrate ENLIFQS,area with substrate ENLLFQS,area with substrate ENLWFQS,area with substrate ENLTFQS
E25S,,0.0689,0.0726,0.0704,,0.0794,0.0797,0.0743,
F187G,,0.0589,0.0568,0.0545,0.0509,,0.0549,,
F187A,,0.0533,,,0.059,0.0738,,0.0607,
Q59N,,0.0693,0.0707,0.0647,0.0765,0.0869,,0.0401,
Q59H,,0.0576,,0.0653,0.069,,0.0628,0.105,
K100D,0.074,0.06,,,0.0623,0.0837,,0.0606,
F101I,,,,,0.0636,,0.0126,,
F101H,,,0.0743,,0.04,,,,
M188R,,0.0729,0.0609,,,,0.0853,,
R81V,,0.0668,0.0505,,0.0313,0.0634,0.104,,
P89V,,,0.0744,,,0.0649,0.0507,,0.0436
R109K,,,0.0522,,,0.0789,,0.0598,
F92N,,0.0641,,,0.0583,0.0732,0.0642,,
Q97E,,0.0738,0.0592,0.0578,0.0958,,,,
Q97W,,0.0707,0.0711,,0.055,,0.0746,,
G213T,,0.0564,,0.0695,0.0795,,0.0519,,0.0784
V78D,,0.062,,,0.0595,0.0639,0.0612,0.0634,
V78N,0.0463,,,0.0439,,,,0.0572,
